In PubChem BioAssay AID1865 (National Center for Advancing Translational Sciences (NCATS), 2009):
Among all 280,000 compounds or so, about 540 (0.19%) were called active. Inconclusive means that the source gave no clear call. Such entries were picked first, then a sample of the others. Calls come from the whole dose curve; as a rule, active = well fitted activation curve with a large enough effect; inconclusive = small, poorly fitted or top-dose-only effect; inactive = flat fitted curve, though single readings scatter. A potency beside an inconclusive call is a rough fit, not a confirmed value.

Test: Quantitative High-Throughput Screen for Regulators of Epigenetic Control; note: nearly all actives have a fitted effect of over 60% in size; for GFP activation: % of control where 0% means no effect
Conditions: murine LDR cells, GFP reporter derepression, 30 h; GFP activation: at 53.9 µM (top of the series)
Procedure, shortened: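 Reporter derepression read as number of fluorescent GFP-positive objects, 20-120 um in size, counted by laser-scanning cytometer. Mouse LDR line with an epigenetically silenced CMV-GFP locus; compound incubation 30 h, 37 C.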
Potency is the fitted concentration of half-maximal effect; tags give direction and shape of the fitted curve.

| SMILES | Potency | GFP activation |
| --- | --- | --- |
| COc1ccc(C(=O)c2sc3nc(-c4ccccc4)ccc3c2N)cc1 | inconclusive: 22.4 µM [activator, single point] | – |
| CC(C)OC(=O)c1cc(C(=O)c2cc(Br)ccc2O)coc1=N | inconclusive: 0.708 µM [activator, partial curve, poor fit] | – |
| CCOc1ccc(S(=O)(=O)n2nc(C)cc2C)c2ccccc12 | – | inactive: 3.51% |
| COc1ccc(NC(=O)Cn2ccn(-c3ccc(C)c(C)c3)c(=O)c2=O)cc1Cl | – | inactive: 0% |
| O=C(Cn1c(=O)c2cccn2c2ccc(F)cc21)Nc1cccc(F)c1 | inconclusive: 20 µM [activator, single point] | – |
| COc1ccc(Cc2nnc(N=Nc3c(O)[nH]c4ccc(Br)cc34)[nH]c2=O)cc1 | inconclusive: 20 µM [activator, single point] | – |
| Cc1ccc(Oc2ncc(-c3ccc(Cl)cc3)cn2)cc1 | inconclusive: 0.447 µM [activator, partial curve, poor fit] | – |
| Cc1ccc(C(=O)Nc2ccc(CC(=O)O)cc2)o1 | – | inactive: -4.62% |
| CC1(C)Cc2nc3sc(C(=O)O)c(N)c3cc2CS1 | inconclusive: 31.6 µM [activator, single point] | – |
| Cc1ccc(CNC(=O)Cn2ccn(-c3ccc(F)c(F)c3)c(=O)c2=O)cc1 | – | inactive: 2.82% |
| CCOC(=O)c1ccc(NC(=S)Nc2ccc(Cl)cn2)cc1 | inconclusive: 35.5 µM [activator, single point] | – |
| Cc1cc(/C=C2\SC(=S)N(C)C2=O)c(C)n1-c1ccc(O)cc1 | inconclusive: 31.6 µM [activator, single point] | – |
| CC[n+]1c(/C=C/Nc2ccccc2)oc2ccccc21 | active: 15.8 µM | – |
| COc1ccc(-n2c(SCC(=O)c3ccccc3)nc3c([nH]c4ccccc43)c2=O)cc1 | – | inactive: 0.833% |
| COc1cccc(CN(C)C(=O)c2csc3c2CCCC3)c1OC | – | inactive: -0.234% |
| Cc1ccc(NC(=O)CO/N=C/c2ccc(N(C)C)cc2)cc1 | inconclusive: 14.1 µM [activator, single point] | – |
| Cn1c(=O)c2sccc2n2c(CCCC(=O)NC3CCCCC3)nnc12 | inconclusive: 35.5 µM [activator, single point] | – |
| CCC(=O)Nc1cccc(C(=O)/C=C/c2cccs2)c1 | inconclusive: 12.6 µM [activator, single point] | – |
| O=C(Nc1ccc(Br)cc1F)N1CC=C(c2c[nH]c3ccccc23)CC1 | inconclusive: 14.1 µM [activator, partial curve] | – |
| O=C(O)c1cccc(NC2=C(Cl)C(=O)c3ccccc3C2=O)c1 | – | inactive: -4.22% |
| COc1cc2c3nnc(-c4ccc(F)cc4)c-3cn(Cc3ccccc3)c2cc1OC | inconclusive: 3.16 µM [activator, full curve] | – |
| CC(C)Nc1nc(Cl)nc(NCCOc2ccccc2)n1 | – | inactive: 0% |
| Cc1ccc(C(=O)COC(=O)c2cccc(NC(=O)c3ccc(Cl)cc3Cl)c2)cc1 | – | inactive: 0.0566% |
| Cc1cc(NC(=O)c2ccc3c(c2)OCCO3)cc(-c2nc3ccccc3o2)c1O | inconclusive: 31.6 µM [activator, single point] | – |

| SMILES | Potency | GFP activation |
| --- | --- | --- |
| c1ccc(N2CCN(CCCOc3ccc4c(c3)OCO4)CC2)cc1 | inactive | – |
| Cc1ccc(C)c(NC(=O)Cn2cc(C(=O)c3cccs3)c3ccccc32)c1 | inconclusive: 35.5 µM [activator, single point] | – |
| CCOC(=O)CC(=O)CSc1nc(-c2ccc3c(c2)OCO3)cc(C(F)(F)F)c1C#N | inconclusive: 22.4 µM [activator, single point] | – |
| CN(C)c1cc(NC(=O)CNC(C)(C)C)c2ccccc2n1 | – | inactive: 0.863% |
| Cc1cc(C)c(S(=O)(=O)N2CCC(N3CCN(Cc4ccccc4)C(=O)C3=O)CC2)c(C)c1 | – | inactive: -1.88% |
| COc1ccc(C(=O)Nc2nnc(SCc3cc(=O)n4cccc(C)c4n3)s2)cc1 | – | inactive: 3.12% |
| CCCSc1ncc(Cl)c(C(=O)Nc2c(C(=O)Nc3ccc(OC)cc3)oc3ccccc23)n1 | inconclusive: 25.1 µM [activator, single point] | – |
| COc1ccc(CS(=O)(=O)/C(Cl)=C(/Cl)C(=O)Nc2ccc(OC)nc2)cc1 | inconclusive: 6.31 µM [activator, single point] | – |
| Cc1cccc(N(Cc2cc3cc(C)ccc3[nH]c2=O)C(=O)c2cccs2)c1 | inconclusive: 20 µM [activator, single point] | – |
| COc1ccc(-c2c(C)nn3c(C(F)(F)F)cc(-c4ccccc4)nc23)cc1 | – | inactive: 11.3% |
| O=C(CSc1nc2c([nH]c3ccccc32)c(=O)n1-c1cccc(C(F)(F)F)c1)N1CCc2ccccc21 | inconclusive: 3.16 µM [activator, full curve, poor fit] | – |
| CCOC(=O)c1cc(-c2ccccc2)sc1NC(=S)Nc1cccc(C)n1 | inconclusive: 31.6 µM [activator, single point] | – |
| O=C(O)CCCN1C(=O)/C(=C\c2ccc(-c3nc4ccccc4s3)o2)SC1=S | – | inactive: 0.714% |
| N#Cc1c(Nc2ccccc2C(F)(F)F)s[nH]c1=O | inconclusive: 35.5 µM [activator, single point] | – |
| Cc1ccc2nc(/C(C#N)=C\c3ccc(N4CCOCC4)o3)[nH]c2c1 | active: 14.1 µM | – |
| Cn1c(=O)oc2cc(S(=O)(=O)N3CCN(c4cccc(Cl)c4)CC3)ccc21 | inconclusive: 31.6 µM [activator, single point] | – |
| COc1ccc(/C=C2/CC/C(=C\c3ccc(OC)c(OC)c3OC)C2=O)c(OC)c1OC | inconclusive: 28.2 µM [activator, single point] | – |
| CC1Cc2ccccc2N1S(=O)(=O)c1nnc(NC(=O)c2cccc(F)c2)s1 (configuration not stated) | inconclusive: 14.1 µM [activator, single point] | – |
| CCN(Cc1ccccc1)C(=O)c1cc2c(=O)[nH]c3ccc(C)cc3c2s1 | – | inactive: 0% |
| COc1ccc(C2CC(=O)c3cc(-c4nc(-c5ccc(Cl)cc5)cs4)c(=O)[nH]c3C2)cc1OC (configuration not stated) | inconclusive: 17.8 µM [activator, single point] | – |
| CC1Cc2ccccc2N1S(=O)(=O)c1nnc(NC(=O)c2ccccc2)s1 (configuration not stated) | inconclusive: 25.1 µM [activator, single point] | – |
| CCOc1ccccc1CNc1nc2nc(C)cc(C)n2n1 | – | inactive: -1.02% |
| O=C(Cc1nc2ccccc2[nH]c1=O)c1ccccc1 | – | inactive: 7.88% |
| Cc1ccc2cc(C#N)c(NCCCNC(=O)C3CCCO3)nc2c1 (configuration not stated) | – | inactive: -2.22% |

| SMILES | Potency | GFP activation |
| --- | --- | --- |
| CC(CN1c2ccccc2Sc2ccccc21)N(C)C (configuration not stated) | inactive | – |
| CCn1c2ccccc2c2cc(NC(=O)c3ccc(Br)o3)ccc21 | active: 14.1 µM | – |
| COc1ccc(C(=O)C2CCCN(C3Cc4ccccc4C3)C2)cc1OC (configuration not stated) | inconclusive: 35.5 µM [activator, single point] | – |
| COc1ccc(Cn2nnnc2C(c2cc3ccc(OC)cc3[nH]c2=O)N2CCC(C)CC2)cc1 (configuration not stated) | – | inactive: -0.0701% |
| Cc1ccc2nc(CCc3nc4ccc(C)cc4o3)oc2c1 | inconclusive: 2.82 µM [activator, single point] | – |
| CC(=O)Nc1ccc2c(COC(=O)CC3Sc4ccccc4NC3=O)cc(=O)oc2c1 (configuration not stated) | inconclusive: 31.6 µM [activator, single point] | – |
| CCOC(=O)C(Sc1cc(-c2ccccc2)nc2ncnn12)C(C)=O (configuration not stated) | inconclusive: 35.5 µM [activator, single point] | – |
| O=C1S/C(=C/c2ccc(N3CCOCC3)o2)C(=O)N1Cc1ccc(F)cc1 | active: 14.1 µM | – |
| O=C(c1cccn1-c1nnc(N2CCCC2)s1)N1CCN(c2ccc(Cl)cc2)CC1 | – | inactive: 2.35% |
| COc1ccccc1/C=C/C=N\N1CCN(Cc2ccccc2Cl)CC1 | inconclusive: 31.6 µM [activator, single point] | – |
| O=Nc1c(-c2cccc([N+](=O)[O-])c2)nc2ncccn12 | inconclusive: 5.62 µM [activator, single point] | – |
| O=C1/C(=C\c2ccco2)CCC/C1=C\c1ccco1 | inconclusive: 4.47 µM [activator, single point] | – |
| CN(C)c1c2ccccc2nc2c(F)c(F)c(F)c(F)c12 | inconclusive: 31.6 µM [activator, single point] | – |
| Nc1ccc(C(=O)N2CCCC2)cc1 | – | inactive: 1.16% |
| O=C(Nc1ccc(N2CCCCC2)cc1)c1ccccc1 | – | inactive: -0.917% |
| CSCCC(NS(=O)(=O)c1cccs1)C(=O)NCc1ccc(C)cc1 (configuration not stated) | inconclusive: 35.5 µM [activator, single point] | – |
| Cn1ccc2cc(S(=O)(=O)N3CCCN(C(=O)Nc4ccccc4Br)CC3)ccc21 | – | inactive: -1.69% |
| O=[N+]([O-])c1cc(O)c2ncccc2c1 | inconclusive: 5.62 µM [activator, single point] | – |
| COc1ccc2oc(=O)c(C(=O)NCCc3c(C)[nH]c4c(Cl)cccc34)cc2c1 | inconclusive: 25.1 µM [activator, single point] | – |
| NC(=O)CSc1ncc2c(n1)-c1ccccc1N(Cc1cccc(F)c1)S2(=O)=O | inconclusive: 35.5 µM [activator, single point] | – |
| CCN(CC)CCOC(=O)c1ccc(NC(=O)c2cn(-c3ccccc3)nc2-c2cccs2)cc1 | inconclusive: 35.5 µM [activator, single point] | – |
| CCN(CC)CCNC(=O)c1ccc(Cn2c(=O)c3cccn3c3cccnc32)cc1 | inconclusive: 6.31 µM [activator, single point] | – |
| CC(C)[C@H](CO)Nc1nc(Nc2cc(N)cc(Cl)c2)c2ncn(C(C)C)c2n1 | inconclusive: 35.5 µM [activator, single point] | – |
| Cc1cc(NC(=O)Nc2nc3c(s2)CCCCCC3)ccc1Br | inconclusive: 15.8 µM [activator, single point] | – |
